# From the supplement of paper PMC8728848
# Some of the results follow.
# How the values were obtained:
# Test in all cases: glycan array binding signal (z-score within array); higher = stronger binding
# Conditions in all cases: glycan notation: IUPAC condensed, linker removed
# [1] = molecular target: Gal(b1-4)GlcNAc(b1-3)Gal(b1-4)GlcNAc(b1-3)Gal(b1-4)GlcNAc(b1-3)Gal(b1-4)GlcNAc(b1-2)Man(a1-3)[Gal(b1-4)GlcNAc(b1-3)Gal(b1-4)GlcNAc(b1-3)Gal(b1-4)GlcNAc(b1-3)Gal(b1-4)GlcNAc(b1-2)Man(a1-6)]Man(b1-4)GlcNAc(b1-4)GlcNAc
# Summary of the method: (§1)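 Negative Z-scores can be read as non-binding. The Z-score is calculated within each array and then averaged across arrays of one protein sequence at different concentrations or buffers and across linkers. Arrays, 3228 in all, were curated from the Consortium for Functional Glycomics database and kept only where the protein sequence was available.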
# [2] = molecular target: Gal(b1-4)GlcNAc(b1-3)Gal(b1-4)GlcNAc(b1-3)Gal(b1-4)GlcNAc(b1-3)Gal(b1-4)GlcNAc(b1-2)Man(a1-3)[Gal(b1-4)GlcNAc(b1-3)Gal(b1-4)GlcNAc(b1-3)Gal(b1-4)GlcNAc(b1-3)Gal(b1-4)GlcNAc(b1-2)Man(a1-6)]Man(b1-4)GlcNAc(b1-4)[Fuc(a1-6)]GlcNAc
# Summary of the method: as §1
# [3] = molecular target: Gal(b1-4)GlcNAc(b1-3)Gal(b1-4)GlcNAc(b1-3)Gal(b1-4)GlcNAc(b1-3)Gal(b1-4)GlcNAc(b1-2)[Gal(b1-4)GlcNAc(b1-3)Gal(b1-4)GlcNAc(b1-3)Gal(b1-4)GlcNAc(b1-3)Gal(b1-4)GlcNAc(b1-6)]Man(a1-6)[Gal(b1-4)GlcNAc(b1-3)Gal(b1-4)GlcNAc(b1-3)Gal(b1-4)GlcNAc(b1-3)Gal(b1-4)GlcNAc(b1-2)Man(a1-3)]Man(b1-4)GlcNAc(b1-4)[Fuc(a1-6)]GlcNAc
# Summary of the method: as §1
# [4] = molecular target: Gal(b1-4)GlcNAc(b1-3)Gal(b1-4)GlcNAc(b1-3)Gal(b1-4)GlcNAc(b1-3)Gal(b1-4)GlcNAc(b1-3)Gal(b1-4)GlcNAc(b1-2)Man(a1-3)[Gal(b1-4)GlcNAc(b1-3)Gal(b1-4)GlcNAc(b1-3)Gal(b1-4)GlcNAc(b1-3)Gal(b1-4)GlcNAc(b1-3)Gal(b1-4)GlcNAc(b1-2)Man(a1-6)]Man(b1-4)GlcNAc(b1-4)GlcNAc
# Summary of the method: as §1
# [5] = molecular target: Gal(b1-4)GlcNAc(b1-3)Gal(b1-4)GlcNAc(b1-3)Gal(b1-4)GlcNAc(b1-3)Gal(b1-4)GlcNAc(b1-3)Gal(b1-4)GlcNAc(b1-2)Man(a1-3)[Gal(b1-4)GlcNAc(b1-3)Gal(b1-4)GlcNAc(b1-3)Gal(b1-4)GlcNAc(b1-3)Gal(b1-4)GlcNAc(b1-3)Gal(b1-4)GlcNAc(b1-2)Man(a1-6)]Man(b1-4)GlcNAc(b1-4)[Fuc(a1-6)]GlcNAc
# Summary of the method: as §1
# [6] = molecular target: Gal(b1-4)GlcNAc(b1-3)Gal(b1-4)GlcNAc(b1-3)Gal(b1-4)GlcNAc(b1-3)Gal(b1-4)GlcNAc(b1-3)Gal(b1-4)GlcNAc(b1-2)[Gal(b1-4)GlcNAc(b1-3)Gal(b1-4)GlcNAc(b1-3)Gal(b1-4)GlcNAc(b1-3)Gal(b1-4)GlcNAc(b1-3)Gal(b1-4)GlcNAc(b1-6)]Man(a1-6)[Gal(b1-4)GlcNAc(b1-3)Gal(b1-4)GlcNAc(b1-3)Gal(b1-4)GlcNAc(b1-3)Gal(b1-4)GlcNAc(b1-3)Gal(b1-4)GlcNAc(b1-2)Man(a1-3)]Man(b1-4)GlcNAc(b1-4)[Fuc(a1-6)]GlcNAc
# Summary of the method: as §1
# [7] = molecular target: Gal(b1-4)GlcNAc(b1-3)Gal(b1-4)GlcNAc(b1-3)Gal(b1-4)GlcNAc(b1-3)Gal(b1-4)GlcNAc(b1-3)Gal(b1-4)GlcNAc(b1-3)Gal(b1-4)GlcNAc(b1-2)Man(a1-3)[Gal(b1-4)GlcNAc(b1-3)Gal(b1-4)GlcNAc(b1-3)Gal(b1-4)GlcNAc(b1-3)Gal(b1-4)GlcNAc(b1-3)Gal(b1-4)GlcNAc(b1-3)Gal(b1-4)GlcNAc(b1-2)Man(a1-6)]Man(b1-4)GlcNAc(b1-4)GlcNAc
# Summary of the method: as §1
# [8] = molecular target: Gal(b1-4)GlcNAc(b1-3)Gal(b1-4)GlcNAc(b1-3)GalNAc
# Summary of the method: as §1
# [9] = molecular target: Gal(b1-4)GlcNAc(b1-3)Gal(b1-4)GlcNAc(b1-3)[Gal(b1-4)GlcNAc(b1-3)Gal(b1-4)GlcNAc(b1-6)]GalNAc
# Summary of the method: as §1
# [10] = molecular target: Gal(b1-4)GlcNAc(b1-3)Gal(b1-4)GlcNAc(b1-6)[Gal(b1-3)]GalNAc
# Summary of the method: as §1
# [11] = molecular target: Gal(b1-4)GlcNAc(b1-3)Gal(b1-4)[Fuc(a1-3)]GlcNAc(b1-3)Gal(b1-4)[Fuc(a1-3)]GlcNAc
# Summary of the method: as §1
# [12] = molecular target: Gal(b1-4)GlcNAc(b1-3)GalNAc
# Summary of the method: as §1
# [13] = molecular target: Gal(b1-4)GlcNAc(b1-3)[Fuc(a1-3)GlcNAc(b1-6)]Gal(b1-4)Glc
# Summary of the method: as §1
# [14] = molecular target: Gal(b1-4)GlcNAc(b1-3)[Gal(b1-4)GlcNAc(b1-6)]Gal(b1-4)GlcNAc
# Summary of the method: as §1
# [15] = molecular target: Gal(b1-4)GlcNAc(b1-3)[GlcNAc(b1-6)]Gal(b1-4)GlcNAc
# Summary of the method: as §1
# [16] = molecular target: Gal(b1-4)GlcNAc(b1-6)Gal(b1-4)GlcNAc
# Summary of the method: as §1
# [17] = molecular target: Gal(b1-4)GlcNAc(b1-6)GalNAc
# Summary of the method: as §1
# [18] = molecular target: Gal(b1-4)GlcNAc(b1-6)[Gal(b1-3)]GalNAc
# Summary of the method: as §1
# [19] = molecular target: Gal(b1-4)GlcNAc(b1-6)[Gal(b1-4)GlcNAc(b1-3)]GalNAc
# Summary of the method: as §1
# Gal(b1-4)GlcNAc6P = molecular target: Gal(b1-4)GlcNAc6P
# Summary of the method: as §1
# Gal(b1-6)Gal = molecular target: Gal(b1-6)Gal
# Summary of the method: as §1
# Gal3S(b1-3)GalNAc = molecular target: Gal3S(b1-3)GalNAc
# Summary of the method: as §1
# Gal3S(b1-3)GlcNAc = molecular target: Gal3S(b1-3)GlcNAc
# Summary of the method: as §1
binder,measurement,setting,value
Als3-41 (Candida albicans) (protein) KTITGVFNSFNSLTWSNAATYNYKGPGTPTWNAVLGWSLDGTSASPGDTFTLNMPCVFKFTTSQTSVDLTAHGVKYATCQFQAGEEFMTFSTLTCTVSNTLTPSIKALGTVTLPLAFNVGGTGSSVDLEDSKCFTAGTNTVTFNDGGKKISINVDFERSNVDPKGYLTDSRVIPSLNKVSTLFVAPQCANGYTSGTMGFANTYGDVQIDCSNIHVGITKGLNDWNYPVSSESFSYTKTCSSNGIFITYKNVPAGYRPFVDAYISATDVNSYTLSYANEYTCAGGYWQRAPFTLRWTGYRNSDAGSNGIVIVATTRTVTDSTTAVTTLPFDPNRDKTKTIEILKPIPTTTITTSYVGVTTSYLTKTAPIGETATVIVD,glycan array binding signal (z-score),[1],-0.136
same,glycan array binding signal (z-score),[2],0.022
same,glycan array binding signal (z-score),[3],0.219
same,glycan array binding signal (z-score),[4],1.05
same,glycan array binding signal (z-score),[5],-0.149
same,glycan array binding signal (z-score),[6],-0.117
same,glycan array binding signal (z-score),[7],-0.051
same,glycan array binding signal (z-score),[8],0.305
same,glycan array binding signal (z-score),[9],0.992
same,glycan array binding signal (z-score),[10],1.05
same,glycan array binding signal (z-score),[11],-0.306
same,glycan array binding signal (z-score),[12],-0.261
same,glycan array binding signal (z-score),[13],-0.31
same,glycan array binding signal (z-score),[14],-0.137
same,glycan array binding signal (z-score),[15],-0.263
same,glycan array binding signal (z-score),[16],-0.092
same,glycan array binding signal (z-score),[17],-0.186
same,glycan array binding signal (z-score),[18],-0.165
same,glycan array binding signal (z-score),[19],-0.259
same,glycan array binding signal (z-score),Gal(b1-4)GlcNAc6P,0.408
same,glycan array binding signal (z-score),Gal(b1-6)Gal,-0.221
same,glycan array binding signal (z-score),Gal3S(b1-3)GalNAc,-0.287
same,glycan array binding signal (z-score),Gal3S(b1-3)GlcNAc,-0.197
